Laboratory results as given in the supplement of paper PMC8728848.
The list shows a part of the results.

Assays:
Experiment in all cases: glycan array binding signal (z-score within array); higher = stronger binding
Conditions in all cases: glycan notation: IUPAC condensed, linker removed
Gal(a1-3)GalNAc = target: Gal(a1-3)GalNAc
Procedure, shortened: (§1)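 Glycan array data were curated from 3228 arrays in the Consortium for Functional Glycomics database and kept only where the protein sequence was available. Glycan names were converted to IUPAC-condensed notation, and columns mapping to the same glycan were averaged. The binding signal is a within-array Z-score, averaged across arrays of the same protein sequence at different concentrations or buffers and across linkers. Negative Z-scores can be read as non-binding.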

[1] = target: Gal(a1-3)[Gal(a1-4)]Gal(b1-4)GlcNAc
Procedure, shortened: as §1

[2] = target: Gal(a1-4)Gal(b1-3)GlcNAc(b1-2)Man(a1-3)[Gal(a1-4)Gal(b1-3)GlcNAc(b1-2)Man(a1-6)]Man(b1-4)GlcNAc(b1-4)GlcNAc
Procedure, shortened: as §1

Gal(a1-4)Gal(b1-4)Glc = target: Gal(a1-4)Gal(b1-4)Glc
Procedure, shortened: as §1

Gal(a1-4)Gal(b1-4)GlcNAc = target: Gal(a1-4)Gal(b1-4)GlcNAc
Procedure, shortened: as §1

[3] = target: Gal(a1-4)Gal(b1-4)GlcNAc(b1-2)Man(a1-3)[Gal(a1-4)Gal(b1-4)GlcNAc(b1-2)Man(a1-6)]Man(b1-4)GlcNAc(b1-4)GlcNAc
Procedure, shortened: as §1

[4] = target: Gal(a1-4)Gal(b1-4)GlcNAc(b1-3)Gal(b1-4)Glc
Procedure, shortened: as §1

Gal(a1-4)GlcNAc = target: Gal(a1-4)GlcNAc
Procedure, shortened: as §1

Gal(a1-6)Glc = target: Gal(a1-6)Glc
Procedure, shortened: as §1

Gal(b1-2)Gal = target: Gal(b1-2)Gal
Procedure, shortened: as §1

Gal(b1-3)Gal = target: Gal(b1-3)Gal
Procedure, shortened: as §1

Gal(b1-3)Gal(b1-4)GlcNAc = target: Gal(b1-3)Gal(b1-4)GlcNAc
Procedure, shortened: as §1

[5] = target: Gal(b1-3)Gal(b1-4)GlcNAc(b1-2)Man(a1-3)[Gal(b1-3)Gal(b1-4)GlcNAc(b1-2)Man(a1-6)]Man(b1-4)GlcNAc(b1-4)GlcNAc
Procedure, shortened: as §1

Gal(b1-3)GalNAc = target: Gal(b1-3)GalNAc
Procedure, shortened: as §1

[6] = target: Gal(b1-3)GalNAc(a1-3)[Fuc(a1-2)]Gal(b1-4)Glc
Procedure, shortened: as §1

[7] = target: Gal(b1-3)GalNAc(a1-3)[Fuc(a1-2)]Gal(b1-4)GlcNAc
Procedure, shortened: as §1

[8] = target: Gal(b1-3)GalNAc(b1-3)Gal(a1-4)Gal(b1-4)Glc
Procedure, shortened: as §1

[9] = target: Gal(b1-3)GalNAc(b1-4)Gal(b1-4)Glc
Procedure, shortened: as §1

[10] = target: Gal(b1-3)GalNAc(b1-4)[Neu5Ac(a2-3)]Gal(b1-4)Glc
Procedure, shortened: as §1

Gal(b1-3)GlcNAc = target: Gal(b1-3)GlcNAc
Procedure, shortened: as §1

[11] = target: Gal(b1-3)GlcNAc(a1-6)Gal(b1-4)GlcNAc
Procedure, shortened: as §1

[12] = target: Gal(b1-3)GlcNAc(b1-2)Man(a1-3)[Gal(b1-3)GlcNAc(b1-2)Man(a1-6)]Man(b1-4)GlcNAc(b1-4)GlcNAc
Procedure, shortened: as §1

[13] = target: Gal(b1-3)GlcNAc(b1-2)Man(a1-3)[Gal(b1-3)GlcNAc(b1-2)Man(a1-6)]Man(b1-4)GlcNAc(b1-4)[Fuc(a1-6)]GlcNAc
Procedure, shortened: as §1

[14] = target: Gal(b1-3)GlcNAc(b1-3)Gal(b1-3)GlcNAc
Procedure, shortened: as §1

[15] = target: Gal(b1-3)GlcNAc(b1-3)Gal(b1-4)Glc
Procedure, shortened: as §1

[16] = target: Gal(b1-3)GlcNAc(b1-3)Gal(b1-4)GlcNAc
Procedure, shortened: as §1

[17] = target: Gal(b1-3)GlcNAc(b1-3)Gal(b1-4)GlcNAc(b1-6)[Gal(b1-3)GlcNAc(b1-3)]Gal(b1-4)Glc
Procedure, shortened: as §1

[18] = target: Gal(b1-3)GlcNAc(b1-3)Gal(b1-4)[Fuc(a1-3)]GlcNAc(b1-6)[Gal(b1-3)GlcNAc(b1-3)]Gal(b1-4)Glc
Procedure, shortened: as §1

[19] = target: Gal(b1-3)GlcNAc(b1-3)GalNAc
Procedure, shortened: as §1

[20] = target: Gal(b1-3)GlcNAc(b1-6)Gal(b1-4)GlcNAc
Procedure, shortened: as §1

[21] = target: Gal(b1-3)[Fuc(a1-4)]GlcNAc
Procedure, shortened: as §1

[22] = target: Gal(b1-3)[Fuc(a1-4)]GlcNAc(b1-2)Man(a1-3)[Gal(b1-3)[Fuc(a1-4)]GlcNAc(b1-2)Man(a1-6)]Man(b1-4)GlcNAc(b1-4)GlcNAc
Procedure, shortened: as §1

[23] = target: Gal(b1-3)[Fuc(a1-4)]GlcNAc(b1-2)Man(a1-3)[Gal(b1-3)[Fuc(a1-4)]GlcNAc(b1-2)Man(a1-6)]Man(b1-4)GlcNAc(b1-4)[Fuc(a1-6)]GlcNAc
Procedure, shortened: as §1

[24] = target: Gal(b1-3)[Fuc(a1-4)]GlcNAc(b1-3)Gal(b1-3)[Fuc(a1-4)]GlcNAc
Procedure, shortened: as §1

[25] = target: Gal(b1-3)[Fuc(a1-4)]GlcNAc(b1-3)Gal(b1-4)GlcNAc
Procedure, shortened: as §1

[26] = target: Gal(b1-3)[Fuc(a1-4)]GlcNAc(b1-3)Gal(b1-4)[Fuc(a1-3)]GlcNAc
Procedure, shortened: as §1

[27] = target: Gal(b1-3)[GlcNAc(b1-6)]GalNAc
Procedure, shortened: as §1

[28] = target: Gal(b1-3)[Neu5Ac(a2-6)]GalNAc
Procedure, shortened: as §1

[29] = target: Gal(b1-3)[Neu5Ac(a2-6)]GlcNAc(b1-6)Gal(b1-4)Glc
Procedure, shortened: as §1

[30] = target: Gal(b1-3)[Neu5Ac(b2-6)]GalNAc
Procedure, shortened: as §1

[31] = target: Gal(b1-4)GalNAc(a1-3)[Fuc(a1-2)]Gal(b1-4)GlcNAc
Procedure, shortened: as §1

[32] = target: Gal(b1-4)GalNAc(b1-3)[Fuc(a1-2)]Gal(b1-4)GlcNAc
Procedure, shortened: as §1

Gal(b1-4)Glc = target: Gal(b1-4)Glc
Procedure, shortened: as §1

Gal(b1-4)Glc6S = target: Gal(b1-4)Glc6S
Procedure, shortened: as §1

Gal(b1-4)GlcNAc = target: Gal(b1-4)GlcNAc
Procedure, shortened: as §1

B1: Gal 1 (Canis lupus) (protein)
chain: MACGLVASNLSLKPGQCLRVQCEVVPEAKSFVLNLGKDGDNLCLHFNPRFEAHGDVNTIVCNSKDGGAWGEELRESAFPFQPGTVTEVCISFDQADLTIKLPDGYTFKFPNRLNLEAISYLAADGDMKIKCLAFD
Gal(a1-3)GalNAc
  glycan array binding signal (z-score): -0.329
[1]
  glycan array binding signal (z-score): -0.322
[2]
  glycan array binding signal (z-score): -0.318
Gal(a1-4)Gal(b1-4)Glc
  glycan array binding signal (z-score): -0.331
Gal(a1-4)Gal(b1-4)GlcNAc
  glycan array binding signal (z-score): -0.342
[3]
  glycan array binding signal (z-score): -0.268
[4]
  glycan array binding signal (z-score): -0.294
Gal(a1-4)GlcNAc
  glycan array binding signal (z-score): -0.341
Gal(a1-6)Glc
  glycan array binding signal (z-score): -0.331
Gal(b1-2)Gal
  glycan array binding signal (z-score): -0.323
Gal(b1-3)Gal
  glycan array binding signal (z-score): -0.278
Gal(b1-3)Gal(b1-4)GlcNAc
  glycan array binding signal (z-score): 0.262
[5]
  glycan array binding signal (z-score): 6.47
Gal(b1-3)GalNAc
  glycan array binding signal (z-score): -0.304
[6]
  glycan array binding signal (z-score): -0.303
[7]
  glycan array binding signal (z-score): -0.341
[8]
  glycan array binding signal (z-score): -0.328
[9]
  glycan array binding signal (z-score): -0.297
[10]
  glycan array binding signal (z-score): -0.312
Gal(b1-3)GlcNAc
  glycan array binding signal (z-score): -0.001
[11]
  glycan array binding signal (z-score): 0.23
[12]
  glycan array binding signal (z-score): 0.898
[13]
  glycan array binding signal (z-score): 0.292
[14]
  glycan array binding signal (z-score): 0.302
[15]
  glycan array binding signal (z-score): 0.425
[16]
  glycan array binding signal (z-score): 0.282
[17]
  glycan array binding signal (z-score): 2.68
[18]
  glycan array binding signal (z-score): 2.94
[19]
  glycan array binding signal (z-score): 0.035
[20]
  glycan array binding signal (z-score): 0.225
[21]
  glycan array binding signal (z-score): -0.299
[22]
  glycan array binding signal (z-score): -0.179
[23]
  glycan array binding signal (z-score): -0.309
[24]
  glycan array binding signal (z-score): -0.331
[25]
  glycan array binding signal (z-score): 0.34
[26]
  glycan array binding signal (z-score): -0.314
[27]
  glycan array binding signal (z-score): -0.334
[28]
  glycan array binding signal (z-score): -0.316
[29]
  glycan array binding signal (z-score): -0.326
[30]
  glycan array binding signal (z-score): -0.315
[31]
  glycan array binding signal (z-score): -0.327
[32]
  glycan array binding signal (z-score): -0.305
Gal(b1-4)Glc
  glycan array binding signal (z-score): -0.289
Gal(b1-4)Glc6S
  glycan array binding signal (z-score): -0.051
Gal(b1-4)GlcNAc
  glycan array binding signal (z-score): 0.021
